In all, about 45,000 compounds went through this assay and about 65 (0.1%) were called active. Calls follow the shape of the dose curve; as a rule, active = well fitted activation curve with a large enough effect; inconclusive = small, poorly fitted or top-dose-only effect; inactive = no such curve, though single readings can be large or run the other way. The list shows a part of the results.
target: Galactocerebrosidase (Homo sapiens) (UniProt P54803); test: A Novel Cell-Based Assay to Identify Small Molecules for B -Galactocerebrosidase; details: 145M-Twi-hGALC-G270D cells (Twitcher mouse brain line with human GALC G270D), HMU-beta-Gal fluorescence, 48 h; series mostly up to 57.5 µM; activation: at the top concentration; also: 0% is about no effect; nearly all actives have a fitted effect of over 65% in size
In short: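 Fluorogenic HMU-b-Gal hydrolysis (0.1 mM final, pH 5.2 citrate-phosphate with 1 mg/mL sodium taurocholate; carbonate stop buffer) measures mutant GALC activity after compound treatment of live 145M-Twi Twitcher brain cells stably carrying human GALC-G270D, with wild-type GALC line alongside; activation sought.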

Sequence of UniProt P54803 (P54803 whole entry, looked up): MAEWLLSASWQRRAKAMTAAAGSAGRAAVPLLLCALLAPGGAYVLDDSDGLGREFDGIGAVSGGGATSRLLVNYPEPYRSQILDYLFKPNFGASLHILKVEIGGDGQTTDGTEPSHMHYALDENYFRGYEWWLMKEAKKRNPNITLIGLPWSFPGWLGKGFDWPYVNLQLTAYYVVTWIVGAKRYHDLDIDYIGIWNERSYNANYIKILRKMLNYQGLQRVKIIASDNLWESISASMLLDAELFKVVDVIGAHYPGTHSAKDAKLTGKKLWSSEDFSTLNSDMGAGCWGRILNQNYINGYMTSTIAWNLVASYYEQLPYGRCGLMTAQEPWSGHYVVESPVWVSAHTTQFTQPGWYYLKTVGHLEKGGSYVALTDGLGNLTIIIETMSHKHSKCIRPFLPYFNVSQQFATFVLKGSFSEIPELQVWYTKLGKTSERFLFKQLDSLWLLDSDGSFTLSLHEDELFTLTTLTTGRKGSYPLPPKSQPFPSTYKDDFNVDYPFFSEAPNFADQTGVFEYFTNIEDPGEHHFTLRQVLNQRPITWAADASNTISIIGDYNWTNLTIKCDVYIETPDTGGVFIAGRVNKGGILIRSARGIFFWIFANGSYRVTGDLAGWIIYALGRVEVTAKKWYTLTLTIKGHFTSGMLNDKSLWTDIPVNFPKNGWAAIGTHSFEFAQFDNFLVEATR

SMILES | activation
CCCn1cnc2cc(NC(=O)c3cc(OC)c(OC)c(OC)c3)ccc21 | inactive: -5.5%
COc1ccc(CCNC(=O)c2ccc3c(c2)nc2n3CCCCC2)cc1OC | inactive: -3.62%
O=C(NCc1cccc(Cl)c1)C1CCCN(c2nn3cc(-c4ccc(F)cc4)nc3s2)C1 (stereo not drawn) | inactive: -8.99%
COc1ccccc1NC(=O)Cn1c(=O)oc2cc(S(=O)(=O)NCc3ccccc3)ccc21 | inactive: -35.2%
Clc1ccc2nc(-c3ccc(N4CCOCC4)cc3)c(Nc3ccccc3)n2c1 | inactive: -24.5%
CCCOC(=O)c1cccc(NC(=O)CSc2nnc3cc(C)c4ccccc4n23)c1 | inactive: -5.25%
CC(=O)c1ccc(NC(=O)c2nc(-c3ccccc3)n(-c3ccc(C)cc3)n2)cc1 | inactive: 1.98%
CCOc1ccc(S(=O)(=O)c2cc3cccc(OCC)c3oc2=O)cc1 | inactive: -15.5%
CC1CCc2c(sc3nnn(Cc4ccccc4Cl)c(=O)c23)C1 (stereo not drawn) | inactive: -12.6%
CCc1ccccc1N(C)C(=O)c1nn(-c2ccc(OC)cc2)c(=O)c2c1c1ccccc1n2C | inactive: -16.9%
Cc1cccc(NC(=O)c2ccc3oc(=O)c(S(=O)(=O)c4ccc(F)cc4)cc3c2)c1C | inactive: -22.5%
CCOc1ccc(CNc2cc(C)nc3nc(-c4cccc(C)c4)nn23)cc1OC | inactive: -32%
Cc1ccc(NCc2cc3cc4c(cc3n(CC(=O)Nc3ccc(C)cc3)c2=O)OCCO4)cc1 | inactive: -10.1%
CCOc1ccccc1NCc1nnc2n1CCCCC2 | inactive: -6.32%
Cc1ccc(-c2nnc3c4ccccc4c(-c4ccccc4)nn23)cc1 | inactive: 4.49%
CC(C)NC(=O)CSc1cn(CC(=O)N2CCCCCC2)c2ccccc12 | inactive: 5.44%
COc1ccc(N2CCN(C(=O)c3cnc(N4CCOCC4)c4ccccc34)CC2)cc1 | inactive: 1.25%
CCOc1ccccc1CNCc1c(C(=O)O)n(Cc2ccccc2)c2cc(OC)ccc12 | inactive: -3.05%
CC1CCC(NC(=O)c2ccc3c(c2)N(Cc2ccccc2F)C(=O)c2ccccc2S3(=O)=O)CC1 (stereo not drawn) | inactive: -15.4%
CCOc1ccccc1Oc1ncnc2c1oc1ccccc12 | inactive: -13.1%
COc1ccccc1OCc1nc2ccccc2n1Cc1ccccc1 | inactive: 24.3%

SMILES | activation
CCOc1ccccc1C1C(C(=O)Nc2ccccc2)=C(C)Nc2nc(-c3ccccc3)nn21 (stereo not drawn) | inactive: -5.47%
Cc1ccc(C)c(S(=O)(=O)c2nnn3c2nc(NC2CCCC2)c2sccc23)c1 | inactive: -0.916%
COc1ccc(C)cc1NC(=O)c1nnn(CC(=O)Nc2c(C)cccc2C)c1N | inactive: -6.01%
CCOc1c(CNCCSc2nnnn2C)cccc1OC | inactive: -12.9%
COc1ccc(OC)c([C@@H]2Nc3ccc(C(=O)O)cc3[C@@H]3C=CC[C@@H]32)c1 | inactive: -6.31%
Cc1cccc(C)c1NC(=O)C(=O)NCC(c1ccc2c(c1)OCO2)N1CCN(C)CC1 (stereo not drawn) | inactive: -12.6%
COc1ccc(CNC(=O)C(CC(C)C)NS(=O)(=O)c2ccc3c(c2)oc(=O)n3C)cc1 (stereo not drawn) | inactive: -3.47%
CCc1cccc(NC(=O)c2cc3c(=O)oc4ccc(C)cc4c3s2)c1 | inactive: 2.03%
CSc1nnc(NC(=O)c2cc(=O)c3cc(C)c(C)cc3o2)s1 | inactive: 10.1%
Cc1ccc(S(=O)(=O)c2cn(Cc3ccccc3)c3cc(N4CCCC4)c(F)cc3c2=O)c(C)c1 | inactive: -5.82%
CC(=O)c1ccc(NC(=O)CCn2cccn2)cc1 | inactive: -7.01%
Cc1ccc(Cn2c(=O)n(Cc3ccc(C(=O)NC4CCN(Cc5ccccc5)CC4)cc3)c(=O)c3ccccc32)cc1 | inactive: -10.5%
CCc1cccc(NC(=O)C2CCCN2S(=O)(=O)c2ccc3nc(-c4ccccc4)[nH]c3c2)c1 (stereo not drawn) | inactive: -11.6%
O=c1c(-c2ccccc2)c1-c1ccccc1 | inactive: -14.3%
CCc1ccc(NC(=O)Cn2c(=O)n(-c3cccc(OC)c3)c(=O)c3c(C)c(C(=O)N(C)C)sc32)cc1 | inactive: -12.8%
CCCc1ccc(OCc2ccc(C(=O)Nc3ccccc3C(=O)OC)o2)cc1 | inactive: -7.82%
CCc1ccc(CNC(=O)c2cccc(-n3c(C)nc4cccnc43)c2)cc1 | inactive: -10.6%
Cc1ccc(-n2c(C)nc3c(cnn3-c3ccccc3)c2=O)cc1 | inactive: -5.88%
Cc1ccc2oc(C(=O)N3CCC(c4nc5ccccc5s4)CC3)c(C)c2c1 | inactive: -7.47%
O=C(c1ccc(Br)cc1)N(Cc1ccco1)c1ccccn1 | inactive: -16.1%
CN1C(=O)Cc2cc(S(=O)(=O)NCc3ccccc3Cl)ccc21 | inactive: -14.6%

SMILES | activation
COCCCNC(=O)CCCn1c(=O)c2ccccc2n(CC(=O)Nc2ccc(C)cc2Cl)c1=O | inactive: -11.7%
Cn1c(=O)c2c(nc(N3CCOCC3)n2Cc2ccccc2Cl)n(C)c1=O | inactive: -36.2%
CCOc1ccc(-c2c(C)nn3c(C)c(C(=O)NCCN(C)C)cnc23)cc1OCC | inactive: -28.8%
CC(C)Cn1c(-c2ccccc2Cl)nc2ccccc21 | inactive: -7%
O=C(NCCc1ccc(Cl)cc1)c1nnc(Cc2ccc(Cl)cc2Cl)o1 | inactive: -10.5%
O=C(NCCc1ccc(Cl)cc1)c1ccc2nc(CCc3ccccc3)oc2c1 | inactive: -16.5%
COc1cc(OC)cc(-c2nnc(SCC(=O)c3ccc([N+](=O)[O-])cc3)o2)c1 | inactive: 2.47%
Cc1nc(S(=O)(=O)N2CCN(c3cccc(Cl)c3)CC2)cn1C | inactive: -6.59%
COc1ccc(N(CC(=O)NCCc2ccc(C)cc2)S(=O)(=O)c2c(C)nn(C)c2C)cc1 | inactive: -5.09%
O=C(CSc1nncn2c1cc1occc12)Nc1ccc(F)c(Cl)c1 | inactive: -10.9%
CC(C)Cn1c(CN2CCN(c3cccc(Cl)c3)CC2)nc2c1c(=O)[nH]c(=O)n2C | inactive: 5.48%
COc1cc(Nc2nn(-c3ccc(OC(F)(F)F)cc3)nc2C(C)=O)cc(OC)c1 | inactive: -13.8%
COc1cc(OC)cc(-n2c(=O)c3ccccc3n(Cc3ccccc3C#N)c2=O)c1 | inactive: -11%
O=C(CCCn1c(=O)[nH]c2ccc(Br)cc2c1=O)N1CCN(c2cccc(Cl)c2)CC1 | inactive: -30.5%
COC(=O)c1ccccc1NC(=O)Cn1nnc(-c2ccc(OC)cc2)n1 | inactive: -11%
CCOC(=O)c1cc(-c2ccc(OC)cc2)n(CCC(=O)Nc2cccc(C)c2C)c1C | inactive: -7.99%
CCCCc1nn2c(=O)cc(COC(=O)c3ccc4c(c3)OCO4)nc2s1 | inactive: -13%
CCc1ccc(NC(=O)Cn2nc(C(F)(F)F)c3c2CCCC3)cc1 | inactive: -9.67%
COc1cc(NC(=O)c2ccc(-c3nc(CSc4ccccc4)c(C)o3)cc2)cc(OC)c1 | inactive: -12.7%
CC1=C(C(=O)Nc2ccccc2)C(C(C)C)n2nc(SCc3ccccc3C)nc2N1 (stereo not drawn) | inactive: -4.48%
CCOc1ccc(-c2cn3c(n2)sc2cc(C(=O)NCCCN4CCCCC4)ccc23)cc1 | inactive: -11.6%
